In PMC6919601, “Identification of Plasmodium dipeptidyl aminopeptidase allosteric inhibitors by high throughput screening” (PLoS ONE, 2019):
Hit rate of the full screen: of about 110,000 compounds, about 230 (0.21%) showed an effect of 50% or more. The list shows a part of the results.

Biological target: DPAP1 (Plasmodium falciparum, UniProt Q8IIJ9)
Experiment: primary screen, percent inhibition; read by cleavage of a fluorogenic dipeptide substrate; higher = more effect of the substance
Parameters: species or system P. falciparum D10 trophozoite lysates; single well
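Further: 30 min substrate incubation versus DMSO and 10 µM JCP410 controls.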

Chain of DPAP1 (Q8IIJ9 whole entry, looked up): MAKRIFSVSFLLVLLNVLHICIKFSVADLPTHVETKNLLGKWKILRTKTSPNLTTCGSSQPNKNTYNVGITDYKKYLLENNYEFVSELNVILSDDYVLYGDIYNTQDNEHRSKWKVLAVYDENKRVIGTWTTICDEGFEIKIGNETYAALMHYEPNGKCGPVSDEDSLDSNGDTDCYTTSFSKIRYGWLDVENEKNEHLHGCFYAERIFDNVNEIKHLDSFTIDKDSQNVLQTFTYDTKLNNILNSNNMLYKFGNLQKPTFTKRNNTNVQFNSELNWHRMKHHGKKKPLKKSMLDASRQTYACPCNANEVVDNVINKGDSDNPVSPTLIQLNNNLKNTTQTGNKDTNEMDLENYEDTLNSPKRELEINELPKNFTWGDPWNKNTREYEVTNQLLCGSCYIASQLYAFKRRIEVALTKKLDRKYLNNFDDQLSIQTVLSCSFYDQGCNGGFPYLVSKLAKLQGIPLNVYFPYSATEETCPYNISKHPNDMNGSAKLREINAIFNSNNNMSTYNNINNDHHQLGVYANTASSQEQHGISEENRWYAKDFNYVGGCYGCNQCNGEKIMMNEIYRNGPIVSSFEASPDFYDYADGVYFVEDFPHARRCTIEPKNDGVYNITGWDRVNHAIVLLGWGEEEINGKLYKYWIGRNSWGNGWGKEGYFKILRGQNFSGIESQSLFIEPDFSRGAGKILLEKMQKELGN

Compound	% Inhibition @ 10 uM [%]
CCSc1nc(N2CCOCC2)c2c(c1C#N)CC(C)(C)OC2	-2.91
CC(C)CCOC(=O)NC(C(F)(F)F)C(F)(F)F	-2.44
CCOc1ccc(OCC)c(C2C(C#N)=C(N)Oc3cc(O)ccc32)c1 (centres unmarked)	-3.49
CC(C)c1ccccc1NC(=O)CN(c1cc(C(F)(F)F)ccc1Cl)S(C)(=O)=O	-7.56
Oc1ncnc2[nH]c(N3CCNCC3)nc12	-0.711
CCN1CCN(CC(=O)n2c(C)c(C)c3ccccc32)CC1	-1.72
CC(C)(C)/C(O)=C/C(=N)c1cccnc1	2.8
CCc1c(CN(Cc2ccccc2)C(C)C)csc1C	-0.999
CC(C)N(Cc1nc(-c2ccccc2)no1)C(=O)c1cccs1	-3.06
c1coc(CNc2nc3ccccc3n2CCN2CCOCC2)c1	0.843
O=C1C2C3CCC(C3)C2C(=O)N1c1cccc(Cl)c1 (centres unmarked)	-0.996
O=C(Nc1ccc(S(=O)(=O)N2CCc3ccccc32)cc1)c1ccc(Br)o1	0.446
Cc1ccccc1CCNC(=O)C(C)n1nc(C)c2c(C)n(-c3ccccc3)nc2c1=O (centres unmarked)	-0.846
CCc1cccc(NC(=O)Cc2ccc(OC)c(OC)c2)c1	-1.89
c1coc(CNc2ncnc3c2nc2n3CCCCC2)c1	-4.89
COc1ccc(C(=O)Nc2cccc(Cl)c2C)cc1Br	-3.96
CC(=O)Nc1ccc(Oc2ccccc2)cc1	2.13
Cc1cccc(NC(=O)C2C3C=CC(C3)C2C(=O)O)n1 (centres unmarked)	-4.21
Cc1ccc(CNC(=O)c2nnn(-c3cccc(C(F)(F)F)c3)c2N)cc1	6.81
CC1=C(c2ccc(C)c(C)c2)S(=O)(=O)N(Cc2ccc(C(=O)NCCc3cccs3)cc2)C1=O	6.31
Clc1nc2ccccc2c2[nH]c3ccccc3c12	5.97
COc1ccc(OC)c2c1CCC(NC(C)=O)C2=O (centres unmarked)	-2.54
NC1=NC(=O)/C(=C\c2ccccc2Sc2ccc(Cl)cc2)S1	2.6
CC(C)C[C@H](NC(=O)c1cccc(-c2csc(N=C(N)N)n2)c1)C(=O)NCC#N	-2.35
Cc1c(C(=O)N2CCOCC2)oc2c1-c1nn(CC(=O)NC3CCCc4ccccc43)cc1CC2 (centres unmarked)	-6.25
NC(=O)C1CCN(Cc2ccc(Cl)cc2Cl)CC1	-3.17

Compound	% Inhibition @ 10 uM [%]
COc1ccccc1CNCc1c(C(=O)O)c(C)n(Cc2ccc(F)cc2Cl)c1C	-9.31
CCOC(=O)c1cnc2cc(C(F)(F)F)ccc2c1N(C)Cc1ccccc1	3.54
COc1ccc(S(=O)(=O)N2CCc3ccccc32)cc1	-4.3
O=C([C@@H](c1ccccc1)N1Cc2ccccc2C1=O)N1CCOCC1	-2.25
O=C(CCc1nc(-c2cccs2)no1)NCc1ccc(F)cc1Cl	-3.39
Cc1cc(C)n2nc(CCc3ccccc3)nc2n1	-4.19
COC(=O)/C(O)=C/C1=NC(C)(C)Cc2ccccc21	2.7
COC(=O)c1cc2c(s1)CS(=O)C2 (centres unmarked)	3.04
Cc1cc(C)cc(NS(=O)(=O)c2ccc(NC(=O)CCC(=O)O)cc2)c1	-2.42
NS(=O)(=O)c1ccc(NC(=O)c2sc3ccccc3c2Cl)cc1	-6.92
CCOC(=O)NC1CS(=O)(=O)CC1N (centres unmarked)	0.884
CC(C)N(CCC#N)S(=O)(=O)c1ccc(-c2ccc([N+](=O)[O-])cc2)cc1	1.9
N#CCNC(=O)C(CSC(=O)OCc1ccccc1)NC(=O)OCc1ccccc1 (centres unmarked)	-1.41
O=C1C(Cl)=C(N2CCCCC2)C(=O)N1Cc1ccccc1	-2.46
CC1CN(CCCc2ccccc2)CC(C)O1 (centres unmarked)	1.67
Cc1cccc(C)c1NC(=O)c1ccc(Br)o1	-2.6
CCN1CCN(Cc2nc3c(c(=O)n(C)c(=O)n3C)n2CCCc2ccccc2)CC1	-1.65
COCCCNC(=O)c1c(NC(=O)c2cc(=O)c3cc(Cl)ccc3o2)sc2c1CCCC2	3.51
O=C(/C=C/c1ccccc1)Nc1ccc(OC(F)(F)F)cc1	-1.59
COc1cc(NC(=O)c2c(OC)cccc2OC)c(OC)cc1Cl	1.67
CC1=C(C)CC2C(=O)C3=C(C(=O)C2C1)C1c2ccccc2C3c2ccccc21 (centres unmarked)	1.12
COc1ccc(OC)c(/C=C/C(=O)c2ccc(OC)cc2OC)c1	7.33
COCCNC(=O)c1ccc(CS(=O)(=O)c2cccc(C(F)(F)F)c2)o1	-3.09
OCCOCCN1CCN(Cc2cc(Br)cs2)CC1	2.65
CCOc1ccc(-c2cc(C(=O)N3CCOCC3)c3c(-c4ccc(C)cc4)[nH]nc3n2)cc1	-2.28
N#Cc1ccc(NC(=O)CSc2ncn(-c3ccccc3)n2)cc1	5.09

Compound	% Inhibition @ 10 uM [%]
COc1ccccc1N1CCN(C(=O)/C=C/c2ccccc2)CC1	-0.127
Cc1cc(-c2ccc([N+](=O)[O-])cc2)nc2ccc3ccccc3c12	-0.239
O=C1CC(c2cccc([N+](=O)[O-])c2)NC(=S)N1 (centres unmarked)	-13
CCCCNC(=O)c1cc(C)nn1-c1ccccc1	-0.138
O=C(NCc1cccs1)C1CC(=O)N(c2ccc(Cl)cc2)C1 (centres unmarked)	-4.7
CCCSc1nc(=O)c2c(n1C)NC(=O)CC2c1cccc(O)c1 (centres unmarked)	-1.11
O=C1NC(=O)N(C2CCCCC2)C(=O)/C1=C/c1cccc(O)c1	-3.04
CC(C)Cc1ccc2c(n1)sc1c(N)ncnc12	-2.97
COc1cc(C(=O)Nc2nonc2-c2ccc(C)cc2)cc(OC)c1OC	-2.84
Cn1cc(NC(=O)N(Cc2ccco2)CC2CCCO2)c2ccccc2c1=O (centres unmarked)	4.91
CC1=C(C(=O)OCCOc2ccccc2)C(c2cc3c(cc2Br)OCO3)CC(=O)N1 (centres unmarked)	3.11
C=C(Br)Cn1c(CCNC(=O)c2ccco2)nc2ccccc21	2.02
O=S(=O)(c1ccc(Br)cc1)N1CCc2[nH]ncc2C1	-3.1
Cc1nc2c(-c3ccc(F)cc3)c(C)nn2c(C)c1CCC(=O)N1CCN(c2ccccn2)CC1	2.93
Cc1ccc(-c2c(O)c(=O)/c2=N\CCCN(C)Cc2ccccc2)cc1	5.39
Cc1ccc(NC(=O)C2CC=CCC2C(=O)O)cc1 (centres unmarked)	0.35
CCOc1ccccc1-n1nnc(-c2nc(-c3ccc(Cl)cc3)no2)c1N	-3.88
CCOC(=O)N1CCC(N2CCCC(C(=O)N3CCCC3)C2)CC1 (centres unmarked)	2.25
COCCNC(=O)Cn1nc(-c2ccc(Cl)cc2)c2ccccc2c1=O	-3.96
CCN(CC)CCCNC(=O)C1CCN(c2ncnc3c2sc2cccc(F)c23)CC1	-2.37
CC1CCN(C(=O)CCc2nnc3n(Cc4ccc(Cl)cc4)c(=O)c4ccccc4n23)CC1	4.16
CNC(=O)Cn1ncc2c3ccccc3n(Cc3cc(C)ccc3C)c2c1=O	1.8
COc1ccc(NC(=O)c2c(OC)cccc2OC)c(OC)c1	2.41
COc1cccc(CCNC2CC(=O)N(c3ccccc3)C2=O)c1 (centres unmarked)	-5.1
C=CCOC(=O)c1sc(N2C(=O)c3oc4ccccc4c(=O)c3C2c2cccc(OC)c2)nc1C (centres unmarked)	2.16
Cc1nn(C(C)C(=O)N2CCC(C)CC2)c(=O)c2cc3sccc3n12 (centres unmarked)	-5.19

Compound	% Inhibition @ 10 uM [%]
CC(C)c1ccc(N(CC(=O)Nc2ccccc2Cl)S(C)(=O)=O)cc1	0.00477
Cc1ccn2c(/C=N\NC(N)=S)c(-c3ccc(Cl)cc3)cc2c1	0.131
Cc1cc(C(=O)O)ccc1-n1c(C)cc(C=C2C(=O)NC(=O)NC2=O)c1C	0.146
Cc1sc(NC(=O)c2ccccc2)c(C(c2ccccn2)N2CCN(C)CC2)c1C (centres unmarked)	2.64
Cc1ccc2oc(=O)c3cc(C(=O)N4CCCCC4C)sc3c2c1 (centres unmarked)	0.809
CN1CCC(NCc2cccc(F)c2)CC1	0.472
CCOc1ccc(C(=O)NCC(=O)n2nc(C)cc2C)cc1	12
Cc1c2cnn(CC(=O)NC(C)c3ccccc3)c(=O)c2c(C)n1Cc1cccc(Cl)c1 (centres unmarked)	2.84
Cc1nc2cc(C(=O)N3CCC4(CC3)OCCO4)ccc2n1-c1ccc(Br)cc1	-2.17
CCOc1cc2sc(N3CCC(C(=O)NCCCN4CCCC4)CC3)nc2cc1Br	23.9
O=C(O)/C=C/C(=O)NCC1CCC(C(=O)O)CC1 (centres unmarked)	0.962
COc1ccc(C2(C)CC(C)(C)N(C(C)=O)c3ccccc32)cc1 (centres unmarked)	-2.28
O=C1CC(N2CCCCCC2)C(=O)N1c1cccc2ccccc12 (centres unmarked)	0.189
CC1=Nc2ccccc2S/C1=C(/O)OC(C)C	-0.436
Cc1ccc(S(=O)(=O)Cc2ccc(C(=O)N3CCC4(CC3)OCCO4)o2)cc1	-1.28
COc1ccccc1N1CCN(C(=O)c2ccc3c(c2)OCO3)CC1	-5.34
CCOc1ccc2ncc(S(=O)(=O)c3ccc(Cl)cc3)c(N3CCCC3)c2c1	9.45
Cc1cc(Cl)ccc1NC(=O)CN(c1ccc(F)cc1)S(=O)(=O)c1ccc2c(c1)OCCO2	1.1
CCOC(=O)N1CCN(c2c(NCCC3=CCCCC3)c(=O)c2=O)CC1	-2.17
Cc1nc2nn(-c3ccccc3)c(O)c2c(O)c1CCC(C)C	1.91
COc1cccc(C(=O)O/N=C(\N)Cc2cccc3ccccc23)c1	-5.08
COc1ccc(OC)c(CNC(=O)CCn2nc(C)c3c(C)n(-c4ccccc4)nc3c2=O)c1	-0.486
Cc1cc(N2CCN(Cc3ccccc3)CC2)n2nc(C)c(-c3ccccc3)c2n1	-5.58
